This note sets out measurements from publication PMC3017775.

One test deals with GAGA1 (Gerbera hybrida) (UniProt Q9ZS30). Nature of the test: two-hybrid; binding domain (pDEST32) and activation domain (pDEST22) fusions combined in both directions by mating PJ69-4A and PJ69-4α; selection on SD -Leu -Trp -Ade and SD -Leu -Trp -His + 1, 5 or 10 mM 3-AT; +22°C for 5 days; positive if either direction grew.
In test [1] the target is T1, GGLO1/GDEF1 dimer (Gerbera hybrida) (UniProt Q9ZS28+Q9ZS26).
T1 sequence 1: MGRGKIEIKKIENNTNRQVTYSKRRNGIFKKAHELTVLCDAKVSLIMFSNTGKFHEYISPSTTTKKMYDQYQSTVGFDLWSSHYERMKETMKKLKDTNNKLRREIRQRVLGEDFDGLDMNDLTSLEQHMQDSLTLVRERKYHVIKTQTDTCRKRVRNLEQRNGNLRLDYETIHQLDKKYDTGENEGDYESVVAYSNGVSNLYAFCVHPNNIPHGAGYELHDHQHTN
T1 sequence 2: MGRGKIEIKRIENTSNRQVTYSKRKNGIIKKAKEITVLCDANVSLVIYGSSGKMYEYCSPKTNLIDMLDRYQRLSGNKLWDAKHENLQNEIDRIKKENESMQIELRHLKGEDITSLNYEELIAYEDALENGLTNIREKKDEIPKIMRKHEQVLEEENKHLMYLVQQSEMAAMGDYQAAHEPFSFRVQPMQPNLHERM
The test is described as follows: yeast three-hybrid; third protein expressed unfused from pARC351 beside binding domain (pDEST32) and activation domain (pDEST22) fusions; selection on SD -Leu -Trp -Ura -Ade and SD -Leu -Trp -Ura -His with 1, 5 and 10 mM, or 10 and 25 mM 3-AT; +22°C for 7 days.

Test [2] addresses T2, GGLO1/GDEF2 dimer (Gerbera hybrida) (UniProt Q9ZS27+Q9ZS26).
T2 sequence 1: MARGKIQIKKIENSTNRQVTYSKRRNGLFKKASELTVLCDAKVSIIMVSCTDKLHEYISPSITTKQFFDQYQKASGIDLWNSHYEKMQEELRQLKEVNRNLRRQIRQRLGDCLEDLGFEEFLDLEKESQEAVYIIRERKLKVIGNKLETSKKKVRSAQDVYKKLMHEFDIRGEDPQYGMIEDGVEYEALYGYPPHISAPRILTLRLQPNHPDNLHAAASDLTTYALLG
T2 sequence 2: T1 sequence 2
Described as above.

A further test concerns the target GAGA2 (Gerbera hybrida) (UniProt Q9ZS29). Nature of the test: two-hybrid; binding domain (pDEST32) and activation domain (pDEST22) fusions combined in both directions by mating PJ69-4A and PJ69-4α; selection on SD -Leu -Trp -Ade and SD -Leu -Trp -His + 1, 5 or 10 mM 3-AT; +22°C for 5 days; positive if either direction grew.
The target of the next test is GSQUA1 (Gerbera hybrida) (UniProt Q9ZS25). Described as above.
For another test, the target named is GSQUA5 (Gerbera hybrida) (UniProt D2T2G2). Described as above.
The target of a further test is GRCD3 (Gerbera hybrida) (UniProt Q6EUV6). The test is described as above.
Another test has as its target T3, GSQUA2 (Gerbera hybrida) (UniProt D2T2G0).
T3 sequence: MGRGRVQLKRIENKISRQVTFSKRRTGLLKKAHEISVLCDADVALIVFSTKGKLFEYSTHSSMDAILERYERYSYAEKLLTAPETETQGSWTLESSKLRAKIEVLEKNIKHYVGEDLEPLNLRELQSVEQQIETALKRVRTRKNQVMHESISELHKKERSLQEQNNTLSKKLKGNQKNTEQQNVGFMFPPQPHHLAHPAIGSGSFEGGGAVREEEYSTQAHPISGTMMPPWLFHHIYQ
The test is described as above.

The next test concerns the target T4, GDEF2 (Gerbera hybrida) (UniProt Q9ZS27).
T4 sequence: T2 sequence 1
The description is as above.

The target of the next test is GRCD2 (Gerbera hybrida) (UniProt Q6EUV7). The description is as above.
A further test deals with T5, GSQUA3 (Gerbera hybrida) (UniProt D2T2G1).
T5 sequence: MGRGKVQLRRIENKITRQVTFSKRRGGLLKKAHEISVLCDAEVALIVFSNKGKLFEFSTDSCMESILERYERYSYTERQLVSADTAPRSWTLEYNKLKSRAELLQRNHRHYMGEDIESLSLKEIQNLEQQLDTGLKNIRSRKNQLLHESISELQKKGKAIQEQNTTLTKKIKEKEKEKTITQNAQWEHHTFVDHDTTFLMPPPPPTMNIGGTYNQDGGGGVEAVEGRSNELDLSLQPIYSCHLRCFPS
The description is as above.

The target in another test is GRCD1 (Gerbera hybrida) (UniProt Q9FST1). The description is as above.
The next test addresses T6, GDEF1 (Gerbera hybrida) (UniProt Q9ZS28).
T6 sequence: T1 sequence 1
The description is as above.

Another test addresses T7, GGLO1 (Gerbera hybrida) (UniProt Q9ZS26).
T7 sequence: T1 sequence 2
The test is described as above.

No constants are given. Whether binding was seen depends on the method and setting. Some entries that bind do so weakly or less than the wild type.

As to GAGA1 (from UniProt Q9ZS30 1-264), the binding entry in the test with GAGA1 (Gerbera hybrida) is on record as “no binding”; in [1], “binds”; in [2], “binds”.
Regarding GAGA2 (from UniProt Q9ZS29 1-246), the binding result in the test with GAGA2 (Gerbera hybrida) is “no binding”; in test [1], “binds”; in [2], “binds”.
For GRCD1 (from UniProt Q9FST1 1-242), the binding result is “no binding” with GSQUA1 (Gerbera hybrida); “no binding” with GSQUA5 (Gerbera hybrida); “binds” with GAGA1 (Gerbera hybrida); “no binding” with GRCD3 (Gerbera hybrida); “no binding” with GSQUA2 (Gerbera hybrida); “binds” with GAGA2 (Gerbera hybrida). The binding result (with GDEF2 (Gerbera hybrida); in the test with GRCD2 (Gerbera hybrida); in the test with GSQUA3 (Gerbera hybrida); in the test with GRCD1 (Gerbera hybrida); with GDEF1 (Gerbera hybrida); in test [1]) was “no binding” in each case. Also, the binding result in test [2] was “no binding”.
Consider GRCD2 (from UniProt Q6EUV7 1-247), for which the binding result is “binds” in the test with GAGA1 (Gerbera hybrida); “binds” in the test with GSQUA2 (Gerbera hybrida); “binds” in the test with GAGA2 (Gerbera hybrida); “no binding” with GRCD2 (Gerbera hybrida); “binds” in test [1]; “binds” in test [2].
For the substance GRCD3 (from UniProt Q6EUV6 1-247), the binding entry with GSQUA1 (Gerbera hybrida), in the test with GSQUA5 (Gerbera hybrida), with GAGA1 (Gerbera hybrida), with GRCD3 (Gerbera hybrida), with GSQUA2 (Gerbera hybrida) and in the test with GAGA2 (Gerbera hybrida) was “no binding” throughout. Further, the binding entry in the test with GGLO1 (Gerbera hybrida) was “no binding”; with GDEF2 (Gerbera hybrida), “no binding”; in the test with GRCD2 (Gerbera hybrida), “no binding”; with GSQUA3 (Gerbera hybrida), “no binding”; with GDEF1 (Gerbera hybrida), “no binding”; in [1], “binds”. Besides, the binding result in test [2] was “binds”.
Regarding GSQUA1 (from UniProt Q9ZS25 1-210), the binding result with GSQUA1 (Gerbera hybrida) is given as “no binding”; with GSQUA5 (Gerbera hybrida) it was “no binding”; with GSQUA2 (Gerbera hybrida), “no binding”; in the test with GSQUA3 (Gerbera hybrida), “no binding”; in [1], “no binding”; in test [2] it was “binds”.
On to GSQUA5 (from UniProt D2T2G2 1-237), for which the binding result is recorded as “no binding” with GSQUA5 (Gerbera hybrida), “no binding” in test [1] and “binds” in [2].
